Hit rate of the full screen: of about 310,000 compounds, about 14,000 (4.5%) showed an effect of 50% or more. The effect is printed as a negative number. The list shows a part of the results.
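Further: peak tail current of the secondary pulse compared with the same well before compound.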

Chain of human ether-à-go-go-related gene (hERG) potassium channel (Q12809 whole entry, looked up): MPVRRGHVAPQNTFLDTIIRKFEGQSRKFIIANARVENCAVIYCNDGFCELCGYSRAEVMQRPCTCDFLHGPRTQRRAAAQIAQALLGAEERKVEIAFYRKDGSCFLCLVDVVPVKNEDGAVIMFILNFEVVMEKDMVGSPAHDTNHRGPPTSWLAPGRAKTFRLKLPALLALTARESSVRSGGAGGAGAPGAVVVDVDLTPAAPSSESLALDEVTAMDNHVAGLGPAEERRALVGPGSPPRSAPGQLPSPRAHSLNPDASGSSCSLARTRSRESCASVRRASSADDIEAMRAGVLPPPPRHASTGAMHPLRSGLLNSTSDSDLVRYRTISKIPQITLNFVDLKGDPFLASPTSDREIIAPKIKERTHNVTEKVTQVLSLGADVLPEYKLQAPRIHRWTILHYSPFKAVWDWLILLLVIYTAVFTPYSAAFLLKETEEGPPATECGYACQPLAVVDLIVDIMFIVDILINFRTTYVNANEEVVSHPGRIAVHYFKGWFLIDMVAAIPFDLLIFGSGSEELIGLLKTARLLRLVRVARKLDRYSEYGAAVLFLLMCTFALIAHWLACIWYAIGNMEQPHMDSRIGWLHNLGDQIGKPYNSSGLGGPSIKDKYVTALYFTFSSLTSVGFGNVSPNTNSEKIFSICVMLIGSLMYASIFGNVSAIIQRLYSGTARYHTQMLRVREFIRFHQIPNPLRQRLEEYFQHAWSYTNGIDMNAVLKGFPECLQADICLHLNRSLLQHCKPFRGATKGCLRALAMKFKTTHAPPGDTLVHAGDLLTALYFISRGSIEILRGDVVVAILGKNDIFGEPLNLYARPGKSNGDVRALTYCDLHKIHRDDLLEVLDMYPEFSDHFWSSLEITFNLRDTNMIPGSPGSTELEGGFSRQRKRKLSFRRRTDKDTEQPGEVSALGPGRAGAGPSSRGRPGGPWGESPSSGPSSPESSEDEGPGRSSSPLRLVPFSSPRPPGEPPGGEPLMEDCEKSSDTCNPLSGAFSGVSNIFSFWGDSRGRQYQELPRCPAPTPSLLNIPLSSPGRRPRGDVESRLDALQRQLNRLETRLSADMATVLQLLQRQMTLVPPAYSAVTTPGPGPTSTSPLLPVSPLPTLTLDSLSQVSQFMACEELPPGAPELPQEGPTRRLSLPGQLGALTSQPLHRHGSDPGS

This assay has as its target human ether-à-go-go-related gene (hERG) potassium channel (human, UniProt Q12809). As to the kind of experiment: primary screen, population patch clamp on CHO cells stably expressing hERG.
For the molecule `CSCCC(=O)N(C)CC1CCCN(CCc2cccc(C(F)(F)F)c2)C1` (stereo not shown), the “hERG current change (%, negative = inhibition) at 10uM” value is reported as -74.6%. Then `COc1ccc(C2c3c(oc4ccccc4c3=O)C(=O)N2c2ccccn2)cc1OC` (stereo not shown), with 5.63%; and `NC(=O)c1c(NC(=O)Cc2cccs2)sc2c1CCC2`, with -18.2%. As for `COc1ccc(-c2noc(CCC(=O)Nc3ccc4c(c3)OCCO4)n2)cc1`, the “hERG current change (%, negative = inhibition) at 10uM” value was determined as 3.33%. `Cc1cc(OC(=O)c2ccc(Cl)cc2Cl)nc(C)n1`: the “hERG current change (%, negative = inhibition) at 10uM” value is reported as 6.82%. Then `Cc1ccc(C(=O)CC(SCC(=O)O)c2ccc([N+](=O)[O-])cc2)cc1` (stereo not shown), with 2.56%. With `FC(F)(F)c1cnc2c(c1)[nH]c(=S)n2-c1ccc(Cl)cc1` the figure was 27%.

For `CCC(C(=O)NC1CCCCC1)n1c(SCc2cccc(F)c2)nc2ccncc21` (stereo not shown), the “hERG current change (%, negative = inhibition) at 10uM” value is recorded as -24.2%.

Consider `CCOC(=O)/C(=C/C=C/c1ccccc1)NC(=O)c1ccccc1`, for which the “hERG current change (%, negative = inhibition) at 10uM” value is -11.3%.

For `S=C(c1c[nH]c2ccccc12)N1CCCC1`, the “hERG current change (%, negative = inhibition) at 10uM” value stood at 9.74%. Then `O=C(NC1CCCCC1)C1CCN(S(=O)(=O)N2CCCCCC2)CC1`, with -1.16%; and `C=CCSc1ccc(S(=O)(=O)N2CCN(C)CC2)cn1`, with -12.5%. With `CC(=O)c1c(O)cc2n(c1=O)-c1ccc(Cl)cc1C2(C)C` the figure was -5%; with `Cc1cc2[nH]ncc2cc1NC(=S)NC(=O)c1ccccc1`, 10.9%. For `O=C(CCC(=O)N1CCN(c2ccc(F)cc2)CC1)c1ccc(F)cc1`, the “hERG current change (%, negative = inhibition) at 10uM” value is recorded as -69.4%.

For `CCn1ccnc1CNC(=O)CC1C(=O)NCCN1Cc1ccc(F)cc1Cl` (stereo not shown), the “hERG current change (%, negative = inhibition) at 10uM” value is listed as 13.7%.

Turning to `Cc1ccc(OCc2ccc(C(=O)O)o2)c([N+](=O)[O-])c1`, the “hERG current change (%, negative = inhibition) at 10uM” value was found to be 25.2%. Then `CCCc1cc(=O)oc2cc(C)cc(OCC(=O)NCCCn3ccnc3)c12`, with -76.4%; and `COc1ccccc1N1CCN(Cc2ccsc2)CC1`, with -30.2%; and `O=c1c2c([nH]c3ccccc13)CCCCCC2`, with -1.57%.

`COc1ccccc1-c1nnc(NC(=O)C(C)Sc2nncn2C)s1` (stereo not shown): the “hERG current change (%, negative = inhibition) at 10uM” value was -1.37%. Take `CCOC(=O)N1CCC2(CC1)CC(=O)c1c(ccc3oc(C(=O)O)c(C)c13)O2`: the “hERG current change (%, negative = inhibition) at 10uM” value is 11.4%. For the molecule `Br.CCCc1nnc2n1N=C(c1ccc([N+](=O)[O-])cc1)CS2`, the “hERG current change (%, negative = inhibition) at 10uM” value is -38.6%. With `Cc1ccc2c(c1)CCCN2C(=O)CSc1ccccc1` the figure was -21.2%. Then `NC(=O)NC(c1ccccc1)c1ccccc1F` (stereo not shown), with 9.53%; and `C=CCC1(O)C(=O)Nc2ccccc21` (stereo not shown), with 6.87%; and `COC(=O)CC1Oc2ccccc2N(Cc2ccccc2)C1=O` (stereo not shown), with -12.6%. With `CCOC(=O)C1CCCN(C(=S)Nc2cccc(Cl)c2C)C1` (stereo not shown) the figure was -3.13%; with `O=C(c1ccccn1)N1CCN(c2cccc(C(F)(F)F)c2)CC1`, -11.5%.

Take `CC(=O)c1sc2nc(CSc3nncn3C)[nH]c(=O)c2c1C`: the “hERG current change (%, negative = inhibition) at 10uM” value is 5.77%. Then `Cc1cc(C)c2nc(NC(=O)c3ccc4c(=O)n5c(nc4c3)CCCCC5)sc2c1`, with 13.9%; and `Cc1ccc(Nc2c(-c3ccc(N4CCOCC4)cc3)nc3ncccn23)c(C)c1`, with -5.83%. `CC1CC(NC(=O)CCn2c(=O)oc3ccccc32)CC(C)(C)C1` (stereo not shown): the “hERG current change (%, negative = inhibition) at 10uM” value is -27.4%.

As to `Cc1cc(C)c2sc(N)nc2c1`, the “hERG current change (%, negative = inhibition) at 10uM” value was 10.6%.

With `Cc1ccc(/C=N/NC(=O)c2cccs2)s1`, the “hERG current change (%, negative = inhibition) at 10uM” value is recorded as 4.6%. For the molecule `CCNc1nc(NC(C)(C)C)nc(Oc2ccc(=O)n(-c3ccccc3)n2)n1`, the “hERG current change (%, negative = inhibition) at 10uM” value turned out to be 9.85%. With `O=C(CC12CC3CC(CC(C3)C1)C2)Nc1ccc2c(c1)COC2=O` the figure was -9.44%. With `Cc1cc(C(F)(F)F)c(C#N)c(=O)[nH]1` the figure was 15.7%; with `Cc1cccc(NC(=S)NCCc2ccc3c(c2)OCCO3)c1C`, -6.17%; with `CSCCC(=O)Nc1cc(S(=O)(=O)N2CCOCC2)ccc1N1CCN(C)CC1`, 15.3%. Then `CCCCCCSc1cc(C)nc2ncnn12`, with -42.9%; and `Cc1nc2ccc(Br)cn2c(=O)c1Cl`, with -10.6%.

Turning to `O=C(Oc1ccc(C(=S)N2CCOCC2)cc1)c1ccccc1[N+](=O)[O-]`, the “hERG current change (%, negative = inhibition) at 10uM” value is given as 23.2%. With `COc1ccccc1CN1CCN(C(=O)COc2ccc3ccccc3c2)CC1` the figure was -36%; with `CC1Cc2cc(/C(O)=C3/C(=O)C(=O)N(CCCn4ccnc4)C3c3cccnc3)ccc2O1` (stereo not shown), 8.82%.

For `CCC(C)(C)C1CCC2(CC1)NC(CO)(CO)CO2` (stereo not shown), the “hERG current change (%, negative = inhibition) at 10uM” value amounted to 12.2%.

These data come from article PMC4336329 (PLoS ONE, 2015).
